Measured values: the supplement of paper PMC10126150
Values marked as one replicate rest on one cluster of the flow cell; about a third of the high ones do not repeat.

System: ATP
Test: switch fluorescence ratio, 500 uM ATP over buffer (Cy3 cluster intensity, sum of 5 cycles each) (fold (ratio)); higher = stronger signal-on switching upon ATP binding; sequences stand for … in TCGTCGGCAGCGTCAGATGTGTATAAGAGACAGTTTTTTTTTTTTTTTTTTTTTTTTT…TC
Conditions: aptamer strand: ATP DNA aptamer (quencher-CACCTGGGGGAGTATTGCGGAGGAAGG + anchor), 100 nM annealed; ATP concentration: 500 uM; one replicate
In short: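 Cy3-labelled switching-strand clusters on a modified Illumina MiSeq flow-cell were annealed to 100 nM quencher-labelled ATP aptamer, imaged in selection buffer, then imaged after 15 min with 500 uM ATP at 22 °C. Five buffer/ATP cycles ran, with NaOH stripping and re-annealing between them. The fluorescence ratio is summed target-cycle over summed buffer-cycle Cy3 intensity per cluster, averaged per switch-domain sequence. Clusters outside 100-1000 RFU were excluded.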
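Note: ATP exposure 15 min at 22 °C before imaging.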

Sequence	switch fluorescence ratio
CCAAAACTAG	1.02
CGTACAAAAA	1.05
TTTCCCTATC	1.03
GACCCGTGCT	1.07
GACTCATGCA	1.29
CCCTATCCTT	1.1
CCTGACACT	1.01
CGTAGGAGTG	1.02
ACGTTGTGGG	0.984
ACTGAAGTAG	0.989
TTTAGCGGAG	0.971
TATAGGGTT	0.989
TAAAGTCAGC	1.06
CAGAACGTGC	1.06
GGATCTAGGA	0.982
TTCTGCAGAA	1.09
GGGAAGTAGC	1.02
GGGTCGTCTT	0.955
CAACCGGGCA	1.04
AAGAGCTCG	1.01
GGAGTTATGT	1.01
TATTGAGGCT	1
AAGGCGGGTC	0.965
ATAGTGTCCC	0.969
CCGGTTACCT	1.2
TAACAGAATG	1.07

Sequence	switch fluorescence ratio
AAAGGGTTT	1
GGTAGGACTT	0.999
TTGAAGACGG	0.912
TGCAGGTGGG	0.982
CGGTAGGAAA	0.993
ATCACCGCTC	1.51
TTTCCTGATT	1.02
GTTACAACTA	1.06
ATTGGTCCTA	1.01
TCCTGTGTGG	0.977
CCAATGTCAA	1.29
GATCATACTG	1.11
CCAGTTCGGG	1.04
TAGGGCACT	0.982
TAAGTCGCTG	1.01
CCAAGAGAAA	1.06
CGTAAGATTT	0.994
ATCCTAAGTG	1.01
TACCTCTGGT	0.991
AGAGCCTTTT	0.971
GTGTTGGTTA	0.964
GGCCACAACT	0.974
CAGCTATGCT	1.02
TGGGGGCACC	1
CATTCAAACC	1.09
TGGTATAAGG	1

Sequence	switch fluorescence ratio
ATTGCCTACT	0.936
ACACAAAAGG	1
AAGATCAGTG	1
AGATATGTCC	1.06
TGGGTGCTAC	1.14
TATCGTCTAA	1.03
ACGTCTAGGT	1.02
CTGTTAAGTA	1
ACTGTACTGA	1.48
ATTACCATGC	1.12
TAGAATTCA	1.01
TTTTCTCGGA	0.999
CACGGGGTC	1
GGCAATTCCG	1.05
ACGGGGATG	1.09
AGTAGATGAC	0.997
AGCGTGACTC	1.17
TGGTATCACA	1
CAGGGAATAT	1.09
ATGACTTGGC	1.03
ACTTATATGT	0.948
GCGATACGTC	1.65
CTATGAACTA	0.993
TAAATGATT	1
TAGCTTTGTC	0.987
TAATGTCGGC	1.04

Sequence	switch fluorescence ratio
GAGTCCGCGG	1.62
TGGCCTGGCC	1.02
TTACTGACGA	1.47
GGTCCGCTAG	1.63
AGTTTGCGTC	1.01
GCGAAACGAG	1.14
GTTGCGATCA	1.03
AATATCATTC	1
CACGTGTTGT	0.962
ATATTTATTC	1.01
TGACGGTAAG	1.02
CAGCCCTTTT	1.07
CGTATGGTGA	1.08
TTTTCTATCG	0.973
TCGACTCATT	1.11
ACCGAACCCG	1.47
CGTCGCAGGG	1.07
TTATAACGC	1.02
CATTTTGGAA	1.02
GAGCTGGGCC	0.984
TTTATTTAAG	0.979
GAATGCCTCG	1.07
AGTACGTGGC	1.06
TGCTAGTGCA	0.975
AGGGGTCATA	0.975
GGGGGCCTGC	1.02

Sequence	switch fluorescence ratio
CCGTAGTGCC	1.41
TGGCAGGGG	1.07
AAATGAATA	1.26
GCAGGTAGCC	1.02
GCCTCGGGAT	1
CCATGTTGTT	0.973
TTGGACTG	0.998
CGATATGAGT	1.02
CTGGCGAAT	0.965
CCATGTAAT	1.03
TGCATTGTGA	0.98
TCATTATCGG	0.986
TCGCGGCAGG	1.03
GTTTAGGCT	0.965
CAGACTTAG	0.989
AAGGGCACAA	0.992
AACTTCATTC	1.02
ATGGCAAAAC	1.09
TGGTCAGGGC	1.03
TGTAAAATCT	1.01
TATCGAACCC	1.03
GAGGTCAGT	0.985
AGACGTACAG	1.07
TAACCCATTT	0.992
AGGAATTTTG	0.968
TAGAGATGCT	0.982

Sequence	switch fluorescence ratio
TCGTCTCCTT	1.05
ATGCCGGACA	1.03
TTGTAATGT	1.02
GGGTTCTCGG	1.01
CTCTTCCAGG	5.99
TCTTGTGACT	0.971
GGCCAAGCTG	0.994
TTTCCACATT	1
TAGACGGTGC	1.03
AACCGTAGGG	0.996
AAGGTGCACT	1.01
CTTACAGGAG	1.04
TATGTTTTGC	1.01
GAAGCACCAG	1.09
ACAGACTTCA	1.1
ATCTCGTATA	1.06
ATAATAGCAA	1.54
TAATTTAATG	1.05
AATTTGTATA	1
TCGACTCAGC	1.18
ACGTGCCCGA	1
TACATCGGTC	1
TTTGTGCAA	1.6
GATGTTGACA	1.12
